Experimental data: paper PMC4336329 (PLoS ONE, 2015)
About 2,200 (0.71%) of roughly 310,000 compounds showed an effect of 50% or more. The effect is printed as a negative number. The list shows a part of the results. Where a SMILES comes first, the peptide text is derived from it. The star is where a group is joined. Boc = CC(C)(C)OC(=O)*

Target: human ether-à-go-go-related gene (hERG) potassium channel (human, UniProt Q12809)
Test: primary screen, population patch clamp on CHO cells stably expressing hERG

Chain of human ether-à-go-go-related gene (hERG) potassium channel (Q12809 whole entry, looked up): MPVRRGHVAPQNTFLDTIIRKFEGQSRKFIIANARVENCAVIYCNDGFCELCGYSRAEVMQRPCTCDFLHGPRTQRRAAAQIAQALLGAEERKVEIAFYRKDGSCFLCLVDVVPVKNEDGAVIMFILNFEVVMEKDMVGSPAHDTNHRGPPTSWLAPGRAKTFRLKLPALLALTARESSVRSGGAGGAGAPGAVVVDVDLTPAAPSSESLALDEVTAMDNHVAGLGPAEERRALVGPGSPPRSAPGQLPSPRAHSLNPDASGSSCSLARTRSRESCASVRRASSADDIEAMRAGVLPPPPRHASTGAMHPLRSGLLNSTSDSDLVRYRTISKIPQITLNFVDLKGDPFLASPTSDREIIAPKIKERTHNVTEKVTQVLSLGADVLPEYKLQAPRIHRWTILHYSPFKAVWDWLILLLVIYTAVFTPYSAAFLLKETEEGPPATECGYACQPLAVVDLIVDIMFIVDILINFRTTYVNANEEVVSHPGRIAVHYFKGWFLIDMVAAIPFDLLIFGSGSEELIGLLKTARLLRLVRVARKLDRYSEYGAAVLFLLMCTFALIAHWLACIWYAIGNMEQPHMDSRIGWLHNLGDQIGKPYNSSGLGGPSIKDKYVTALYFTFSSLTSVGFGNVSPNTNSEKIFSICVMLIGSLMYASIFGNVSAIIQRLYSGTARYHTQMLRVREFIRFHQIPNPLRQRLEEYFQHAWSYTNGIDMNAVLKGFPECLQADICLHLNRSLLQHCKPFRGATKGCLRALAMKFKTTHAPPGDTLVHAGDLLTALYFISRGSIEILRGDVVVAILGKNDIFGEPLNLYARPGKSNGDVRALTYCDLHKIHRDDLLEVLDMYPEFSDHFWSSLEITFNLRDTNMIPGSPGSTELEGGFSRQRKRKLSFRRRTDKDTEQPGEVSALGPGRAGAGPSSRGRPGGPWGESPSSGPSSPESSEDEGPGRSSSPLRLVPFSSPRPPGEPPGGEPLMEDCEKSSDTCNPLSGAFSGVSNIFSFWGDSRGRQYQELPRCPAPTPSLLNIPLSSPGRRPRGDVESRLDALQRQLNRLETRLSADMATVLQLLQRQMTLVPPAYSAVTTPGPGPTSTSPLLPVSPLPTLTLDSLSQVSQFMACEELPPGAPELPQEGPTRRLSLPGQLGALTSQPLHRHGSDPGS

Going from `CCCn1c(N2CCC(Cc3ccccc3)CC2)nc2c1c(=O)[nH]c(=O)n2C` to `CCCC(c1nnnn1CCOC)N1CCN(c2nc3ccccc3s2)CC1` (stereo not drawn), the “hERG current change (%, negative = inhibition) at 1uM” value falls from 2.58% to -18%.

Going from `CCc1nnc(NS(=O)(=O)c2ccc(NC(=S)NC(=O)c3cccnc3)cc2)s1` to `COc1ccc(C(=O)NC(=S)Nc2cccnc2)cc1OC`, the “hERG current change (%, negative = inhibition) at 1uM” value rises from 6.64% to 8.4%.

Compared with `Cc1ccc(CNC(=O)CSc2n[nH]c(N)n2)cc1`, `Cc1ccc(C)c(S(=O)(=O)NCC(=O)NCc2ccco2)c1` is lower in “hERG current change (%, negative = inhibition) at 1uM” value: 14.3% for the first, 4.55% for the second.

First: Cc1ccc(Oc2ccc(S(=O)(=O)N3CCOCC3)cc2C(N)=O)cc1C
Second: CC(C)[C@H](NC(N)=O)C(=O)Nc1cccc(S(=O)(=O)N2CCOCC2)c1
The “hERG current change (%, negative = inhibition) at 1uM” value of the first is lower: 1.14% for the first, 8.72% for the second.

Going from `CC12CCC(C(=O)Nc3ccccc3N3CCOCC3)(CC1=O)C2(C)C` (stereo not drawn) to `O=C(Cn1cnc2ccccc2c1=O)N1CCOCC1`, the “hERG current change (%, negative = inhibition) at 1uM” value falls from 12.7% to 6.13%.

First: Cc1ccccc1-c1cn(-c2ccccc2)c(=S)[nH]1
Second: O=C(CNc1ccccc1)N/N=C/c1c[nH]c2ccccc12
The “hERG current change (%, negative = inhibition) at 1uM” value of the first is higher: 13.9% for the first, -14.6% for the second.

Going from `O=C(CCSc1ccc(Cl)cc1)NN=C1CCCCCC1` to `Cc1[nH]c2ccccc2c1C(=O)CSc1ccc(Cl)cc1`, the “hERG current change (%, negative = inhibition) at 1uM” value rises from 6.42% to 15.6%.

First: O=C(/C=C/c1cccc([N+](=O)[O-])c1)NCCSCc1ccccc1Cl
Second: Cc1c(S(=O)(=O)c2ccccn2)c(N)n(Cc2ccccc2Cl)c1C
The “hERG current change (%, negative = inhibition) at 1uM” value of the first is lower: 4.37% for the first, 19.4% for the second.

Going from `Cc1ccccc1Cn1cc(S(=O)(=O)c2ccc(C(C)C)cc2)c(=O)c2cc3c(cc21)OCO3` to `COc1ccc(NS(=O)(=O)c2ccc(C)c(C(=O)NCC(c3ccco3)N(C)C)c2)cc1` (stereo not drawn), the “hERG current change (%, negative = inhibition) at 1uM” value falls from 10.2% to 4.41%.

Compared with `COc1ccc(NC(=O)Nc2cc3oc4ccccc4c3cc2OC)cc1`, `COc1ccc(OC)c(/C=N/NC(=O)c2cccc3ccccc23)c1` is higher in “hERG current change (%, negative = inhibition) at 1uM” value: 3.28% for the first, 13.8% for the second.

First: CN(C)c1nnnn1-c1ccccc1Oc1ncc(C(F)(F)F)cc1Cl
Second: CCOc1ccc(S(=O)(=O)n2nnc3ccccc32)cc1C(C)C
The “hERG current change (%, negative = inhibition) at 1uM” value of the first is higher: 14.5% for the first, 7.8% for the second.

Going from `CN(C(=O)N1CCN(S(=O)(=O)c2ccccc2)CC1)c1ccccc1` to `O=C(c1cnccn1)N1CCN(S(=O)(=O)c2ccc3ccccc3c2)CC1`, the “hERG current change (%, negative = inhibition) at 1uM” value rises from 4.09% to 9.17%.

First: Cc1c(NC(=S)Nc2ccc(Cl)cc2)c(=O)n(-c2ccccc2)n1C
Second: COc1cccc(NC(=O)Nc2c(C)n(C)n(-c3ccccc3)c2=O)c1
The “hERG current change (%, negative = inhibition) at 1uM” value of the first is lower: 0.0846% for the first, 15.8% for the second.

Compared with `O=c1[nH]cnc(O)c1C(c1ccc([N+](=O)[O-])cc1)c1c(O)nc[nH]c1=O`, `O=[N+]([O-])c1ccc([C@H](O)[C@H](CO)N=Cc2ccccc2O)cc1` is higher in “hERG current change (%, negative = inhibition) at 1uM” value: 13% for the first, 15.5% for the second.

Going from `Cc1ccc(C)c(OCCCCn2cnc3ccccc3c2=O)c1` to `CCOC(=O)Cn1c(-c2cccnc2Cl)nc2ccccc21`, the “hERG current change (%, negative = inhibition) at 1uM” value rises from 7.56% to 12.9%.

Going from `CNC(=S)N(Cc1ccc(OC)cc1)C1CC(=O)N(c2ccc(OC)cc2)C1=O` (stereo not drawn) to `COc1ccc(-n2cc(CNCCc3nc(C)cc(C)n3)c(-c3ccccc3Cl)n2)cc1`, the “hERG current change (%, negative = inhibition) at 1uM” value rises from -13.3% to -1.55%.

Compared with `O=C(CNC(=O)c1ccc(Br)cc1)NCC(=O)OCC(=O)c1ccc(F)cc1`, `Cc1cccnc1NC(=O)CNC(=O)c1ccccc1` is lower in “hERG current change (%, negative = inhibition) at 1uM” value: 13.9% for the first, 6.71% for the second.

First: CCN(Cc1ccccc1)C(=O)CSc1ccccc1C(=O)O
Second: CCOC(=O)C(NC(=O)c1ccccc1)(OCc1ccccc1)C(F)(F)F (stereo not drawn)
The “hERG current change (%, negative = inhibition) at 1uM” value of the first is higher: 13.6% for the first, 2.21% for the second.

Going from `Cc1cc(OCCNCCO)cc(C)c1Cl` to `COc1ccc2cc(CO)c(Cl)nc2c1`, the “hERG current change (%, negative = inhibition) at 1uM” value rises from -7.14% to 13.8%.

Compared with `Cc1ccc(S(=O)(=O)NCc2cccnc2)cc1C(=O)N1CCCC1`, `Cc1ccc(S(=O)(=O)N2CCCC(C(=O)NCc3ccccc3F)C2)cc1` (stereo not drawn) is higher in “hERG current change (%, negative = inhibition) at 1uM” value: 13.4% for the first, 22.8% for the second.

Compared with `CC(C)c1c(C(=O)N/N=C/c2ccco2)nnn1-c1nonc1N`, `O=C(CSc1nnc(-c2ccco2)o1)c1ccc(O)cc1O` is higher in “hERG current change (%, negative = inhibition) at 1uM” value: 10% for the first, 10.6% for the second.

Compared with `Cc1nnc(SCC(=O)O)s1`, `Cc1csc(NC(=O)CSc2nnc(-c3cccs3)n2C)n1` is lower in “hERG current change (%, negative = inhibition) at 1uM” value: 3.78% for the first, -7.02% for the second.

Going from `CC(=O)c1c(C)[nH]c(C(=O)Nc2cc(S(=O)(=O)N3CCCCC3)ccc2C)c1C` to `CCc1noc(C)c1C(=O)Nc1cc(S(=O)(=O)N2CCOCC2)ccc1OCC(F)(F)F`, the “hERG current change (%, negative = inhibition) at 1uM” value rises from 10.1% to 16.7%.

Compared with `CC(C)CN(C(=O)C1CC1)C1CCS(=O)(=O)C1` (stereo not drawn), `O=C(COc1ncnc2sccc12)NC1CCS(=O)(=O)C1` (stereo not drawn) is higher in “hERG current change (%, negative = inhibition) at 1uM” value: -0.949% for the first, 11.9% for the second.

Compared with `CCOC(=O)c1cc(C)nn1-c1nc(Cl)cc(OC)n1`, `CCOC(=O)c1cccc(NC(=O)c2cnc3ccccc3n2)c1` is lower in “hERG current change (%, negative = inhibition) at 1uM” value: -0.348% for the first, -4.01% for the second.

First: N#Cc1ccc(/C=N/NC(=S)Nc2ccc(S(=O)(=O)N3CCOCC3)cc2)cc1
Second: O=C(CCCc1nc2ccccc2s1)Nc1ccc(N2CCOCC2)cc1
The “hERG current change (%, negative = inhibition) at 1uM” value of the first is lower: 4.43% for the first, 26.4% for the second.

Going from `CCC(C)C(NC(=O)c1ccccc1NC(=O)c1ccc(OC)cc1)C(=O)NCc1ccco1` (stereo not drawn) to `CCOC(=O)c1ccccc1NC(=O)c1ccc2nccnc2c1`, the “hERG current change (%, negative = inhibition) at 1uM” value falls from 10.6% to 0.379%.

Going from `O=C(Cc1c[nH]c2ccccc12)NCC(=O)Nc1ccc(F)c(F)c1F` to `CCOC(=O)c1ccc[n+](CC(=O)Nc2cc(C(F)(F)F)ccc2Cl)c1.[Cl-]`, the “hERG current change (%, negative = inhibition) at 1uM” value rises from 9.26% to 10.4%.

Going from `COc1cc2ccccc2cc1C(=O)N1CCN(c2ccccn2)CC1` to `CCOc1ccc(-c2nnn(CC(=O)N3CCN(c4ccc(OC)cc4)CC3)n2)cc1OCC`, the “hERG current change (%, negative = inhibition) at 1uM” value rises from -3.96% to 9.06%.

First: COc1ccc(NC(=O)c2ccc3snnc3c2)cc1
Second: COc1ccc(C(=O)OC(C)CN2CCOCC2)cc1.Cl (stereo not drawn)
The “hERG current change (%, negative = inhibition) at 1uM” value of the first is higher: 5.83% for the first, 1.84% for the second.

Compared with `C=CCn1c(O)c(N=NC(=S)Nc2ccc(OC)c(Cl)c2)c2ccccc21`, `COc1ccc(OC)c(S(=O)(=O)CC(O)COc2ccccc2Cl)c1` (stereo not drawn) is lower in “hERG current change (%, negative = inhibition) at 1uM” value: 33.2% for the first, 12.4% for the second.

Compared with `CC(C)(C)NCCCOc1ccc(Cl)cc1C(C)(C)C.O=C(O)C(=O)O`, `CCCNC(=O)CCNC(=O)c1ccc(C(C)(C)C)cc1` is lower in “hERG current change (%, negative = inhibition) at 1uM” value: -2.84% for the first, -7.66% for the second.

First: Clc1ccc2[nH]cc(-c3nnnn3-c3ccc4ccccc4c3)c2c1
Second: O=C1NC(Cc2ccccc2)c2nc3cc(F)ccc3c(=O)n2-c2cc(Cl)ccc21 (stereo not drawn)
The “hERG current change (%, negative = inhibition) at 1uM” value of the first is higher: 19.5% for the first, 11.9% for the second.

First: COc1ccc(CCNC(=O)CC(Cc2ccccc2)C(=O)O)cc1OC (stereo not drawn)
Second: CCOc1ccc(CCNC(=O)C2CC(=O)N(c3ccccc3OCC)C2)cc1OCC (stereo not drawn)
The “hERG current change (%, negative = inhibition) at 1uM” value of the first is lower: 10.1% for the first, 25% for the second.

First: Cc1cccc([C@@H]2[C@@H]3C(=O)N(Cc4ccccc4)C(=O)[C@@H]3[C@]3(Cc4ccccc4)C(=O)N(c4ccccc4)C(=O)N23)c1
Second: O=C(NCC1COc2ccccc2O1)c1cc2ccccc2o1 (stereo not drawn)
The “hERG current change (%, negative = inhibition) at 1uM” value of the first is lower: 12% for the first, 12.3% for the second.

Going from `Nc1c(C(=O)Nc2cccc(C(=O)O)c2)sc2nc3c(cc12)CCCC3` to `O=C(Cc1csc(NC(=O)Nc2cccc(Cl)c2)n1)NCc1cccnc1`, the “hERG current change (%, negative = inhibition) at 1uM” value falls from 11.7% to -44.2%.

Compared with `COc1ccc(CN(C#N)c2nc(SC)nc(N(C)C)n2)cc1`, `CN1CCCN(Cc2nc(-c3ccc(Cl)cc3)no2)CC1` is lower in “hERG current change (%, negative = inhibition) at 1uM” value: 8.91% for the first, -31.4% for the second.

Compared with `CCOC(=O)C1Nc2c(F)cc(C)cc2C2C=CCC12` (stereo not drawn), `Cc1cc(NC(=O)COC(=O)c2cc3c(s2)CCC(C)C3)no1` (stereo not drawn) is lower in “hERG current change (%, negative = inhibition) at 1uM” value: 15% for the first, 4.79% for the second.

First: O=c1ccc(Oc2nc(N3CCOCC3)nc(N3CCOCC3)n2)n[nH]1
Second: Cc1nc(N2CCOCC2)nc2c1CCC2
The “hERG current change (%, negative = inhibition) at 1uM” value of the first is lower: 4.65% for the first, 10.2% for the second.

Going from `Nc1c(C(=O)CSc2nccn2-c2ccc(Cl)cc2)c(=O)[nH]c(=O)n1C1CC1` to `O=C(NCc1ccco1)C1CCN(C(=O)c2cc3sccc3n2Cc2ccc(F)cc2)CC1`, the “hERG current change (%, negative = inhibition) at 1uM” value falls from 15.6% to -26.5%.

Compared with `CCC(C)C(NC(=O)OC(C)(C)C)C(=O)NC(CC(C)C)C(N)=O` (stereo not drawn) (Boc-Ile-Leu-NH2; configuration not given here), `CCCOC(=O)CC1C(=O)NCCN1Cc1ccccc1C` (stereo not drawn) is higher in “hERG current change (%, negative = inhibition) at 1uM” value: 11.3% for the first, 13.9% for the second.

Going from `Clc1ccc(CN2CCSCC2)cc1Cl` to `CC1CCCCN1S(=O)(=O)c1cnc(Cl)c(Br)c1` (stereo not drawn), the “hERG current change (%, negative = inhibition) at 1uM” value falls from 15.1% to 3.62%.

First: N/C(=N\OC(=O)CCCOc1ccccc1)c1ccccn1
Second: O=C(Nc1cccc(C(F)(F)F)c1)OCc1ccncc1
The “hERG current change (%, negative = inhibition) at 1uM” value of the first is higher: 9.43% for the first, 4.89% for the second.

Compared with `Cc1cc(-c2csc3nc[nH]c(=S)c23)cc(C)c1C`, `COc1cc(/C=C/C(=O)N2CCC=CC2=O)cc(OC)c1OC` is lower in “hERG current change (%, negative = inhibition) at 1uM” value: 16.7% for the first, 13.8% for the second.

First: O=C(NCc1ccco1)[C@@H]1CSC2c3ccccc3C(=O)N21 (stereo partly drawn)
Second: O=C(NC12CC3CC(CC(C3)C1)C2)N1CCC(O)CC1
The “hERG current change (%, negative = inhibition) at 1uM” value of the first is lower: 9.01% for the first, 11.2% for the second.
